Laboratory results published in publication PMC4336329 (PLoS ONE, 2015).
In all, about 310,000 compounds went through this assay and about 2,200 (0.71%) showed an effect of 50% or more. Effects have a minus sign here. The list shows a part of the results.

target: human ether-à-go-go-related gene (hERG) potassium channel (human, UniProt Q12809); assay: primary screen, population patch clamp on CHO cells stably expressing hERG
Sequence (Q12809 whole entry, looked up): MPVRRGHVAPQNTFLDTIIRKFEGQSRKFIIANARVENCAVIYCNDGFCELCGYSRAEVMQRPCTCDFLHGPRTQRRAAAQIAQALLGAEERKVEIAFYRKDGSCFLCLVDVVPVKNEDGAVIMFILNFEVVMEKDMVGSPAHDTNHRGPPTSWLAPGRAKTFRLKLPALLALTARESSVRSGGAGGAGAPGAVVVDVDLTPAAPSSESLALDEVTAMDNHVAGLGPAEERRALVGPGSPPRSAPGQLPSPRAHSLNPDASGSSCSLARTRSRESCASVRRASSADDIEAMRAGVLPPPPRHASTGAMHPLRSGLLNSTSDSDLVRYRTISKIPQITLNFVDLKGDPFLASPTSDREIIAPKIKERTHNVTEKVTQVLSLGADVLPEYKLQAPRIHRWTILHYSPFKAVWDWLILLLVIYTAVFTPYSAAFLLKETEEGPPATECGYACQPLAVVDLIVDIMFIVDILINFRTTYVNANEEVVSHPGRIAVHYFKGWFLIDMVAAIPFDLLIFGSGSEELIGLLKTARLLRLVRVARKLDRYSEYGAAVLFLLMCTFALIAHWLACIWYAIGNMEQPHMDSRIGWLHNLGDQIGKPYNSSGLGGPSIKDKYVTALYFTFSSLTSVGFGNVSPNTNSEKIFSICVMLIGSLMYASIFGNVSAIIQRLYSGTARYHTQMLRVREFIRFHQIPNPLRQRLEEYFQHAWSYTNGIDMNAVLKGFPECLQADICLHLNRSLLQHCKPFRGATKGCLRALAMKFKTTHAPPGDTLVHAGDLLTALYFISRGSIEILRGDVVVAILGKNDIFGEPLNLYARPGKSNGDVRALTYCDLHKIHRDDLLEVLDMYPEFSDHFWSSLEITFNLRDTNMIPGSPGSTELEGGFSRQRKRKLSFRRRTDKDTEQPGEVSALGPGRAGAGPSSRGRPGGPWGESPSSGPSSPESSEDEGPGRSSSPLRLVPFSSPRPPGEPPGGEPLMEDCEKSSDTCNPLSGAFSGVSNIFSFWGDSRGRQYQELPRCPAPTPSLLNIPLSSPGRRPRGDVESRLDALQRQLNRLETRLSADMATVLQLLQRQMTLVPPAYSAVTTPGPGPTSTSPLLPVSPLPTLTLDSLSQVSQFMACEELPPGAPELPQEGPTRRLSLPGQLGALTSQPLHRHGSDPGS

Structure (SMILES) | hERG current change (%, negative = inhibition) at 1uM [%]
Cc1cc2ccc(C)c(C)c2nc1SCC(=O)c1cccs1 | 2.07
O=C1NC(=O)C(=Cc2coc3ccc(O)cc3c2=O)C(=O)N1 | 8.19
CC(=O)c1ccc(N2CCN(C(=O)CCN3C(=S)NC(C)(C)CC3C)CC2)cc1 (centres unmarked) | 9.14
CC(=O)Nc1cccc(NC(=O)c2cccc(OCc3ccccc3)c2)c1 | 13.8
COc1ccccc1OCCNC(=O)C1CC(=O)N(c2ccc3c(c2)OCCO3)C1 (centres unmarked) | 9.49
Cc1c(C(=O)OCC(C)(C)CN(C)C)oc2ccccc12.Cl | -28.6
Nc1nc(-c2ccccc2Br)cs1 | 10.5
Cc1cccc(C)c1NC(=O)Cn1c(=O)n(CCCC(=O)NCc2ccco2)c(=O)c2sccc21 | 1.63
COc1cc(C(=O)OCC(=O)Nc2cc(-c3cc(C)c(C)cc3C)nn2-c2ccccc2)cc(OC)c1OC | 16.1
CCc1nnc2sc(-c3ccc(NC(=O)c4ccc5c(c4)OCCO5)cc3)nn12 | 22.1
O=C1C=C(c2ccc(Cl)c(C(F)(F)F)c2)C[C@@H](c2ccc3c(c2)OCO3)C1 | 12.8
COc1ccc(CC(=O)NC2CCS(=O)(=O)C2)cc1 (centres unmarked) | 4.38
Cc1cc(NC(=O)CCC(=O)N(Cc2ccco2)C(C(=O)NCC2CCCO2)c2ccncc2)no1 (centres unmarked) | 10.2
O=C(Nc1nc2ccccc2s1)C1c2ccccc2Oc2ccccc21 | 2.78
CSc1nc2nc3c(c(=O)n2[nH]1)CCC3 | 1.88
Cc1ccc(/C=N/n2cnc3sc(-c4ccccc4)cc3c2=O)o1 | 6.12
COC(=O)c1ccc(/C=N/NC(=O)C(=O)NCc2ccccc2)cc1 | 7.96
NS(=O)(=O)c1ccc(NC(=S)Nc2ccc(F)c(F)c2)cc1 | 11.3
Fc1ccccc1/C=N/n1c(C2CCCCC2)n[nH]c1=S | 10.4

Structure (SMILES) | hERG current change (%, negative = inhibition) at 1uM [%]
C[C@H](NC(=O)C1CC(=O)N(c2ccc3c(c2)OCO3)C1)C(=O)NCc1ccco1 (some centres unmarked) | 7.24
NNC(=O)c1cccc(O)c1 | 13
C[C@@]12CC(=O)NC1N(C(=O)c1cccc(C(F)(F)F)c1)C(c1ccccc1OC(=O)c1cccc(C(F)(F)F)c1)C2 (some centres unmarked) | 12.2
Cc1ccc(S(=O)(=O)NN=C2C3CC4CC(C3)CC2C4)cc1[N+](=O)[O-] | 13
COc1ccc(NC(=O)c2ccccc2NC(=O)c2ccco2)cc1 | 13.6
COc1ccccc1-n1c(C)nc2cc(C(=O)NCc3ccc4c(c3)OCO4)ccc21 | 13.8
CNC(=S)NCCN1CCOCC1 | 0.884
O=C1NC(=O)C(=Cc2cccc(OCCOc3ccccc3)c2)C(=O)N1 | 1.97
CCCc1nc2ccccc2c(C(=O)OCC(=O)NCc2ccco2)c1CC | 3.11
Cc1occc1C(=O)N1CCCC(Nc2ccc(F)cc2)C1 (centres unmarked) | 12.6
Cc1cc(C)c(C)c(SCC(=O)Nc2oc(C)c3c(C)n[nH]c(=O)c23)c1C | 8.14
O=C(CCC(=O)N1CCCC1)N1CCCC1 | 34.3
COC(=O)c1ccc(NC(=O)CN(Cc2ccc(Cl)cc2)S(C)(=O)=O)cc1 | 1.88
COc1ccc(N(C(=O)C2CSC(=O)C2)C(C(=O)NC(C)(C)C)c2ccncc2)cc1 (centres unmarked) | 10
COc1ccc(CC(=O)Nc2cc(Cl)ccc2C(=O)O)cc1 | 9.96
Cc1ccc(C(=O)N2CCN(c3nc4ccccc4n3C)CC2)cc1 | -34.6
CN(CCCNC(=O)C1CCCN(S(=O)(=O)c2cnc[nH]2)C1)c1ccccc1 (centres unmarked) | 12.8
COc1ccccc1N1CCN(c2nc(C)cc(=O)[nH]2)CC1 | 13.4
O=[N+]([O-])c1cc([N+](=O)[O-])c2nonc2c1Nc1ccccc1O | 8.28

Structure (SMILES) | hERG current change (%, negative = inhibition) at 1uM [%]
COc1ccc(-n2c(O)c(/C(C)=N/Nc3ccccc3)c(=O)[nH]c2=O)cc1 | 7.9
Cc1ccccc1S(=O)(=O)Cc1ccc(C(=O)NC(C)c2ccc3c(c2)OCCO3)o1 (centres unmarked) | 7.17
Cc1csc(NC(=O)/C=C/c2ccco2)n1 | 8.56
Cc1sc2nc(SCC(=O)N3CCN(CCO)CC3)n(-c3ccccc3)c(=O)c2c1C | 7.1
O=C(OCCN1C(=O)c2ccccc2C1=O)C1CCN(S(=O)(=O)c2cccs2)CC1 | 7.84
CC(C)c1ccc(NC(=S)NC2CC3C=CC2C3)cc1 (centres unmarked) | -7.38
CN1C(=O)C(C)(C)c2cc(S(=O)(=O)N3CCCC3C(=O)NCc3ccccc3Cl)ccc21 (centres unmarked) | 4.54
Cc1ccc(-c2nn(CC(=O)Nc3ccc4c(c3)nc3n4CCOC3)c(=O)c3ccccc23)cc1 | -15.4
CC(NC(=O)C(=O)N/N=C\c1cccc([N+](=O)[O-])c1)c1ccccc1 (centres unmarked) | 7.56
COc1nc(C)cc(C)c1S(=O)(=O)c1ccc(Cl)cc1 | 8.93
COc1ccc(-c2csc(/C(C#N)=C\c3ccc(O)c([N+](=O)[O-])c3)n2)cc1OC | 10.7
CC(C)C(NC(=O)CN1C(=O)c2cccc3cccc1c23)C(C)C | 16.4
Cc1cccnc1NC(=O)CCNC(=O)c1ccccc1Cl | 48.8
COc1oc(-c2ccccc2)nc1C(F)(F)F | 1.28
C/C(CC(=O)Nc1cccc2c1CCCC2)=N\NC(=O)Cc1ccccc1 | 15.2
Cc1csc(SCc2nc3scc(-c4ccccc4)c3c(=O)[nH]2)n1 | 5.18
CCCCOC(=O)CSCC(=O)N1N=C(c2cccs2)CC1c1ccc(F)cc1 (centres unmarked) | 1.7
Cn1cc(/C=N/NC(=O)c2ccccc2O)c2ccccc21 | 9.93
